Experimental data reported in PubChem BioAssay (NCI).
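Values below derive from 48-hour exposures of cells grown in 96-well plates, with endpoints linearly interpolated between the two concentrations bracketing the appropriate inhibition level. At the GI50, growth is halved. TGI denotes the concentration required for complete inhibition of growth.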

System: NCI-H322M lung
Assay: NCI-60 cell line screen, 48 h

## CC(=O)O[C@H](C[C@H](C(C)C)N(C)C(=O)[C@@H](NC(=O)[C@H]1CCCCN1C)C(C)(C)C)c1nc(C(=O)N[C@@H](Cc2ccccc2)C[C@H](C)C(=O)O)cs1
  GI50: < 0.0025 µM
  TGI: > 25 µM

## C[C@H]1CC2=CC(=O)CC[C@]2(C)[C@H]2CC[C@@]3(C)[C@@H](CC[C@]3(C)O)[C@H]12
  GI50: 72.3 µM
  TGI: > 100 µM

## COc1ccc(NC(=S)NNC(=O)c2cc(-c3ccccc3)nc3ccccc23)cc1
  TGI: 62.1 µM

## CN/N=C(\C(=O)Nc1ccc([N+](=O)[O-])cc1[N+](=O)[O-])C1NC(=O)NC1=O (configuration not stated)
  TGI: > 100 µM

## [N-]=[N+]=Nc1c(Br)c(=O)[nH]c(=O)n1COCCO
  TGI: > 100 µM

## CN(C)c1ccc(/C=C2\C[C@H]3[C@@H]4CCc5cc(O)ccc5[C@H]4CC[C@]3(C)C2=O)cc1
  TGI: > 100 µM

## COc1ccc(N2C(=O)C(N3C(=O)C=CC3=O)C2C=O)cc1 (configuration not stated)
  TGI: > 100 µM

## O=c1oc2cc(OS(=O)(=O)c3ccccc3)ccc2c2c1CCCCC2
  GI50: > 100 µM
  TGI: > 100 µM

## COC(=O)C12C3C4C1C1C2C3C41C(=O)N(C(C)C)C(C)C (configuration not stated)
  TGI: > 100 µM

## COc1cc(N=Nc2cccc(S(N)(=O)=O)c2)c2ccccc2c1N
  TGI: 29.4 µM

## COc1ccc(N2C(=O)/C(=C/c3ccc(N(CCC#N)CCC#N)cc3)N=C2c2ccccc2)c(OC)c1
  TGI: > 100 µM

## Cc1nnc2sc(-c3ccc([N+](=O)[O-])o3)nn12
  TGI: 61.1 µM

## c1ccc2c(c1)c1c3n2-c2cc(on2)C3CCC1 (configuration not stated)
  TGI: > 100 µM

## C=C1CC(OC)(C(O)C(=O)N[C@H]2OCO[C@H]3C2O[C@H](C[C@H](O)COC)C(C)(C)C3OC)O[C@H](C)[C@@H]1C (some centres not stated)
  TGI: > 0.00772 µM

## CCC1OC(/C(C)=C/C(C)/C=C/C2C(C)C2/C=C/C2OC(CC(=O)O)CC(O)C2O)CC=C1C (configuration not stated)
  GI50: 40 µM
  TGI: > 50 µM

## COC(=O)/C=C\C(C#N)(C#N)N=Cc1ccsc1
  TGI: 31.1 µM

## COC(=O)C1=C(C)NC2(C)OC(C)(O)C(C(C)=O)C12C(C)=O (configuration not stated)
  TGI: > 100 µM

## O=C1C2=C(c3ccccc31)C(c1ccc(F)cc1)N1C(=O)CCSC1=N2 (configuration not stated)
  TGI: > 100 µM

## N#C/C(=C\c1cccnc1)c1nc2ccccc2o1
  GI50: > 100 µM
  TGI: > 100 µM

## C=C1C(=O)O[C@H]2C3C(=C(C)CC[C@@H]12)C(=O)[C@@H]1OC31C (some centres not stated)
  TGI: 26.7 µM

## COc1cc(/C=C\c2cc(OC)c(OC)c(OC)c2)cc(NS(=O)(=O)c2cccc(Cl)c2)c1OC
  GI50: 0.373 µM
  TGI: > 100 µM

## CC1=NN(C(=O)c2cc(Cl)cc([N+](=O)[O-])c2)C(=O)C1N=Nc1ccccc1C(=O)O (configuration not stated)
  TGI: > 100 µM

## CCCCCCCCCCCCCCCCNc1ccn(C2CC(OP(=O)(O)OCC3OC(n4cc(CC)c(=O)[nH]c4=O)CC3O)C(CO)O2)c(=O)n1 (configuration not stated)
  TGI: > 100 µM

## C=C1C(=O)O[C@H]2C/C(C=O)=C\[C@H]3O[C@H]3/C(COC(=O)C(C)C)=C/CC12 (some centres not stated)
  TGI: 25.8 µM

## N#Cc1c(NCc2ccccc2)nc(NCc2ccccc2)c(C#N)c1-c1cccc(O)c1
  GI50: 22.1 µM
  TGI: 86.2 µM

## c1ccc(-c2[nH]c(-c3ccccc3)c(-c3cnccn3)c2-c2cnccn2)cc1
  TGI: > 100 µM

## O[C@H](CN1CC1)[C@@H](O)CN1CC1
  GI50: 13.3 µM
  TGI: 49.9 µM

## CCOC(=O)N1C(=S)C(C(=O)OC)(C(=O)OC)N=C1C
  TGI: > 100 µM

## O=[N+]([O-])c1ccc(NC(=S)N/N=C(\c2ccccc2)c2ccccn2)cc1
  TGI: 2.78 µM
